Screen size: about 310,000 compounds; about 14,000 (4.5%) showed an effect of 50% or more. Effects have a minus sign here. The list shows a part of the results.
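Further: peak tail current of the secondary pulse compared with the same well before compound.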

For the experiment, the target named is human ether-à-go-go-related gene (hERG) potassium channel (human, UniProt Q12809). Description: primary screen, population patch clamp on CHO cells stably expressing hERG.
Chain of human ether-à-go-go-related gene (hERG) potassium channel (Q12809 whole entry, looked up): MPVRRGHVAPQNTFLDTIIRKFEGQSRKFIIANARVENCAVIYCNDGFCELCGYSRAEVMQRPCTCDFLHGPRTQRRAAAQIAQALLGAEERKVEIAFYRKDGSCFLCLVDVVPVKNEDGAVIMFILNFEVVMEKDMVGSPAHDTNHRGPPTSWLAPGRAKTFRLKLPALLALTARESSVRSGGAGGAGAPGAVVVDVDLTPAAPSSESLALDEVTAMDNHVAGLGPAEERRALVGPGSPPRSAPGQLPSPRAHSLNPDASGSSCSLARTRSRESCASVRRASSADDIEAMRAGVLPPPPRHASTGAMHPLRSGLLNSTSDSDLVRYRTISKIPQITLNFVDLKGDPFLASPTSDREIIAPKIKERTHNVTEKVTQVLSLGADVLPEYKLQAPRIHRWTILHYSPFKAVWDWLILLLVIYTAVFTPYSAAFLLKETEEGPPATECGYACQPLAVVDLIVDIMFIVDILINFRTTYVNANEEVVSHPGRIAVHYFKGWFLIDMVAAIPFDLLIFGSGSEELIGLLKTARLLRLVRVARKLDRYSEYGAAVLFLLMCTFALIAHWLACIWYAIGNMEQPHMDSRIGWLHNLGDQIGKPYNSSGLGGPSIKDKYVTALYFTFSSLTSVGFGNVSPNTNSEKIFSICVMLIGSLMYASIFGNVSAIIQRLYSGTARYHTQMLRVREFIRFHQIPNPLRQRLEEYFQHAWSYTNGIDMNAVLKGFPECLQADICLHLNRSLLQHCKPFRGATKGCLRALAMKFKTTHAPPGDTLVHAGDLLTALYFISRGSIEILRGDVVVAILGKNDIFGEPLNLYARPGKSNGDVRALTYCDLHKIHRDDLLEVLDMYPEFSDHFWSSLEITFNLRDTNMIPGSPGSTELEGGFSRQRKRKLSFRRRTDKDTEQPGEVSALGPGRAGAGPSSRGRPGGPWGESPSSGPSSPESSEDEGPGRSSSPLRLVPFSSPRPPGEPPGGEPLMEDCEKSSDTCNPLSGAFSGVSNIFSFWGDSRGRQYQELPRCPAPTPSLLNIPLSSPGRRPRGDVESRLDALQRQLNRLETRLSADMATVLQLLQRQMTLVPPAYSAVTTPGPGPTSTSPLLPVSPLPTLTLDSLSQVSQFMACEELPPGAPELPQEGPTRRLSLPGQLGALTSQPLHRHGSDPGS
In the case of `C[C@@H]1NC(=O)[C@H](CCC(=O)O)NC(=O)c2cc([N+](=O)[O-])cc(F)c2NCCC[C@@H](C(N)=O)NC1=O`, the “hERG current change (%, negative = inhibition) at 10uM” value is 15.2%. As for `O=C1C=C(N2CCCCC2)C2(CCCCC2)O1`, the “hERG current change (%, negative = inhibition) at 10uM” value was 11.3%. With `Cc1cccc2cc(CN(CCCO)C(=O)Nc3cccc(Cl)c3)c(=O)[nH]c12`, the “hERG current change (%, negative = inhibition) at 10uM” value is reported as -28.4%.

With `O=C(CCc1nc2ccccc2c(=O)[nH]1)Nc1nnc(SCc2ccccc2F)s1`, the “hERG current change (%, negative = inhibition) at 10uM” value is reported as -1.22%. For the molecule `CCn1c(SCC(=O)NC2CCCC2)nnc1-c1ccco1`, the “hERG current change (%, negative = inhibition) at 10uM” value is 14.8%.

Take `CCC(C)n1c(SCC(=O)Nc2cc(C(C)(C)C)nn2-c2ccccc2)nc2ccccc2c1=O` (stereo not shown): the “hERG current change (%, negative = inhibition) at 10uM” value is listed as 3.57%.

As to `O=C(CSc1ncnc2c1oc1ccccc12)c1cccs1`, the “hERG current change (%, negative = inhibition) at 10uM” value worked out at 11.5%. With `CC(=O)NC(c1ccc(Cl)cc1Cl)c1ccc2cccnc2c1O` (stereo not shown) the figure was 10.3%; with `CN(CC(=O)N1CCN(c2ccccn2)CC1)S(=O)(=O)c1cccc2nsnc12`, -23.6%; with `Cc1cc(C(=O)Nc2ccc(Br)cc2)cs1`, -42%. On to `O=C(Cc1ccccc1)NCC(=O)OC(c1ccccc1)c1ccccc1`, for which the “hERG current change (%, negative = inhibition) at 10uM” value is listed as -10.1%. `CCOC(=O)CNC(=O)c1cccs1`: the “hERG current change (%, negative = inhibition) at 10uM” value came to 21.6%. As for `COCCN(C(=O)c1ccco1)c1nnc(-c2ccc(F)cc2)s1`, the “hERG current change (%, negative = inhibition) at 10uM” value was determined as 14.8%. With `Cc1ccc(S(=O)(=O)Nc2ccc(-c3ccc4nncn4n3)cc2)cc1` the figure was -9.23%. For the molecule `COC(=O)C1=C(c2ccc(-c3ccccc3)c(F)c2)C[C@@H]2CC[C@H]1N2C(=O)N1CCCC1`, the “hERG current change (%, negative = inhibition) at 10uM” value is on record as -8.37%. Take `COc1cccc(CN(C)C(=O)c2ccc3c(=O)n4c(nc3c2)CCC4)c1`: the “hERG current change (%, negative = inhibition) at 10uM” value is -11.3%. As for `O=C(c1ccco1)N1CCN(c2c([N+](=O)[O-])nn(-c3ccc(Cl)cc3)[n+]2[O-])CC1`, the “hERG current change (%, negative = inhibition) at 10uM” value is -57.2%. In the case of `CC(/C=N/NC(=O)c1ccc(Br)cc1)=C\c1ccccc1`, the “hERG current change (%, negative = inhibition) at 10uM” value is given as -3.38%.

On to `CCO[C@@H]1OC(C(N)=O)=C[C@H](c2ccccc2)[C@H]1CCCO`, for which the “hERG current change (%, negative = inhibition) at 10uM” value was determined as 8.98%.

For `Cc1cc(C)c(NC(=O)CS(=O)CC(=O)N2CCN(c3cccc(C)c3C)CC2)c(C)c1` (stereo not shown), the “hERG current change (%, negative = inhibition) at 10uM” value is on record as -17.6%.

As to `CCOC(=O)Cc1csc(NC(=O)C(NC(=O)C2CCC(C)CC2)C(C)C)n1` (stereo not shown), the “hERG current change (%, negative = inhibition) at 10uM” value is given as 23.5%. Take `CCc1nnc(NC(=O)CSc2nnc(Cc3ccc(OC)cc3)o2)s1`: the “hERG current change (%, negative = inhibition) at 10uM” value was determined as 6.59%. For `O=C(CSc1ncccn1)NCc1ccccc1Cl`, the “hERG current change (%, negative = inhibition) at 10uM” value was -2.63%.

As to `O=C(Nc1nc2ccccc2[nH]1)c1cccs1`, the “hERG current change (%, negative = inhibition) at 10uM” value is recorded as 10.4%.

In the case of `O=C(O)c1cc(-c2ccc(/C=N/Nc3ccc(Cl)cc3)o2)ccc1Cl`, the “hERG current change (%, negative = inhibition) at 10uM” value was found to be 21%.

Regarding `CNC(=S)N1C2CCCC1CC(NC(=O)c1ccc(F)cc1)C2` (stereo not shown), the “hERG current change (%, negative = inhibition) at 10uM” value came to 6.93%.

`C/C(=N\N)c1c(-c2ccccc2)c2cc(C)ccc2[nH]c1=O`: the “hERG current change (%, negative = inhibition) at 10uM” value was 0.204%.

Regarding `CCc1cccc(CC)c1NC(=O)c1cccc(S(=O)(=O)N2CCN(C)CC2)c1`, the “hERG current change (%, negative = inhibition) at 10uM” value is given as -4.14%. For `CN=C1SC(CC(=O)Nc2ccccc2F)C(=O)N1/N=C/c1ccc(O)c(OC)c1` (stereo not shown), the “hERG current change (%, negative = inhibition) at 10uM” value is reported as -11.1%. With `COc1cc(OC)cc(OC(=O)C2CCN(C(=O)c3ccc(Cl)cc3)CC2)c1` the figure was -33.9%. `CC1=C(C(=O)OC2CCCC(C)C2)C(c2ccccc2)NC(=O)N1` (stereo not shown): the “hERG current change (%, negative = inhibition) at 10uM” value is given as -17.8%. With `Cc1cc(S(=O)(=O)N2CCOCC2)ccc1OCC(=O)NCCN1CCOCC1` the figure was 11.3%. Turning to `Nc1c(C(=O)NCc2ccco2)nnn1-c1ccccc1`, the “hERG current change (%, negative = inhibition) at 10uM” value was 2.52%. Take `C=CCOc1ccc(/C(CC)=N/O)c(OC)c1`: the “hERG current change (%, negative = inhibition) at 10uM” value is -10.6%. With `Cc1c(C(=O)Nc2nc3ccccc3[nH]2)oc2ccc(Br)cc12` the figure was -45.7%; with `Cc1[nH][nH]c(=O)c1N=Nc1ccc(S(N)(=O)=O)cc1`, 11.3%. With `CC(c1cc2ccccc2s1)N(O)C(N)=O` (stereo not shown) the figure was -3.66%; with `N#C/C(=C(/O)c1ccc(F)cc1)c1nc2ccccc2s1`, 24%. Take `CCN(c1cccc(C)c1)S(=O)(=O)c1cc(CN2C(=O)c3cccnc3C2=O)ccc1OC`: the “hERG current change (%, negative = inhibition) at 10uM” value is -18.8%.

With `CCc1ncc(CN2CCC(C(=O)Nc3ccc(-n4nc(C)cc4C)cc3)CC2)cn1`, the “hERG current change (%, negative = inhibition) at 10uM” value is listed as -10.5%. `Cc1ccc(S(=O)(=O)CC(CN2CCOCC2)N2CCOCC2)cc1` (stereo not shown): the “hERG current change (%, negative = inhibition) at 10uM” value is recorded as 6.6%. With `CN(C)S(=O)(=O)c1cccc(NC(=O)c2cc(-c3cccs3)nn2-c2ccccc2)c1` the figure was 22.3%. For the molecule `Cc1cccc(NC(=O)Cc2noc3ccccc23)c1C`, the “hERG current change (%, negative = inhibition) at 10uM” value is reported as 6.8%. Take `CC(C)C[C@H](NC(=O)N1CCCCCC1)C(=O)O`: the “hERG current change (%, negative = inhibition) at 10uM” value is listed as 5.09%. As for `Cn1nc(OCc2ccccc2)ccc1=O`, the “hERG current change (%, negative = inhibition) at 10uM” value is reported as -4.3%. Turning to `O=C1CCCC2=C1C1(CCCCC1)N=C(Nc1nc3ccccc3s1)N2`, the “hERG current change (%, negative = inhibition) at 10uM” value amounted to 8.68%.
